# Reference: the supplement of paper PMC11417369
# ± gives the standard deviation of the averaged measurements. Some of the results follow.
# System: PfAP2-LT AP2 domain (GST-tagged)
# Experiment: gcPBM binding intensity (ln(normalized median fluorescence intensity)); higher = stronger DNA binding
# In short: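 Binding of GST-tagged P. falciparum DNA-binding domains, expressed in E. coli and used at about 25 μg on average, was carried out for 1 h in 1× PBS containing 1% milk, 0.2 mg/ml BSA, 0.5% salmon testes DNA and 0.03% Triton X-100. The target was an Agilent 4 × 180k array of primer-extended double-stranded 36-bp intergenic genomic probes plus negative controls, read with Alexa488 anti-GST antibody at 488 nm. Binding intensity is the highest Masliner-normalised natural-log median intensity across replicate spots of either probe orientation.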
row,Sequence,gcPBM binding intensity (ln)
1,ATATACATTCAAGGCTGTACACTATATTTTTTTTTT [XGTACX_site6514],8.97 ± 0.53
2,AGTATACACGAACACACACACACATATATAAATATA [CACACA_site6913],10.2 ± 0.4
3,TAAAGTATTACAACCACACACACACCCATATATTAT [CACACA_site4159],9.93 ± 0.36
4,TATAAAATTATTAAACAAGAAAATTTTAGGTAATAC [TGCATGCA_negctrl_site568],8.54 ± 0.54
5,TATAATATATTTTGATGTACAAATATATTATATATA [XGTACX_site8633],8.37 ± 0.34
6,ATAATATATTTTTGAACACACAATATATATATATAT [CACACA_site4124],9.06 ± 0.14
7,ATATAAATATGACACACACACAAAAAAAATAAAGAC [CACACA_site6208],9.91 ± 0.26
8,TTGATAAAACGTTATGCACACGTACGTGGGTATTTA [CACACA_site8445],9.04 ± 0.32
9,TAATTTAAAAATTCCTGTACTCAGTTTTTTCTATTT [XGTACX_site4961],8.56 ± 0.67
10,TAAGTGTATGTATATAAACACACATACATATATATA [CACACA_site8397],9.14 ± 0.38
11,AATCAAAATAATTTAACACACAATTTTAATACTGTT [CACACA_site2375],8.8 ± 0.42
12,AAATTCCATGAAAAAAGTACTAATTAATACAATATA [XGTACX_site2877],8.66 ± 0.45
13,TTTAAGAATTAACGGGGTACAATTCTTAAATATATA [XGTACX_site669],8.39 ± 0.26
14,TAGAAGTACATATATGCATGTTAATTTTAAAGGAGG [TGCATGCA_site538],8.85 ± 0.45
15,ATTAAAAATATTAGTTGTACTTTATATTTTCATATA [XGTACX_site3614],8.5 ± 0.41
16,ATATATATATAGTGTTGTACATTTAAAAATAATATA [XGTACX_site2627],8.69 ± 0.4
17,TGTTTTATTTTTTTTGTGCACATACCTTTAGCATCA [GTGCAC_site9812],8.92 ± 0.51
18,TAATTATAATAAATATTCATATGTTCAAATATATAT [CACACA_negctrl_site151],8.41 ± 0.4
19,ATGTGATAGAAGTACACACACATATGTATTTATAAT [CACACA_site5075],9.49 ± 0.33

row,Sequence,gcPBM binding intensity (ln)
1,TATATATAATTCATACATTTTAAATATATTTATTTA [CACACA_negctrl_site840],8.47 ± 0.35
2,TTTTAAAAACGGCATGCATGTAATACATGGAAGGAA [TGCATGCA_site480],9.09 ± 0.36
3,TATAATAATATAATGGTGCATGTATATAACCATATA,8.71 ± 0.38
4,TTTGTTGACAGACACACACACATACATATATATATA [CACACA_site2288],9.78 ± 0.24
5,AAATAAATATAAATAAATAAATAAATAAATATATAT [CACACA_negctrl_site827],8.69 ± 0.36
6,TCTTACGGATTCATTGTGCACATATATATATATATA [GTGCAC_site9896],9.715 ± 0.0071
7,GCTCTTTTGTTATGGTGTACCCTCCATGTAACATAA [XGTACX_site91],8.84 ± 0.42
8,TTAATAATTCTTAAAAGTACATAACTTTTTTTTTTT [XGTACX_site751],8.3 ± 0.7
9,TTTTTTATTAAAAGTAGTACACATGAAAAAAAAAAA [XGTACX_site5524],8.52 ± 0.48
10,TTAATATAGATATAACCACACACATACATCTAATTC [CACACA_site8519],9.33 ± 0.28
11,ATTTTTATAGAAATATGTACACAATATGTATATATT [XGTACX_site7993],8.74 ± 0.45
12,TTTAAAAAAATTCATGCACACGAAATAAAAAGCACC [CACACA_site8214],9.14 ± 0.33
13,TCTTTTATGCACATTGAGTAAACAACATATTTTTAA [TGCATGCA_negctrl_site561],8.48 ± 0.45
14,AATAAAAACTACATGTGTACATAATAAATACATATA [XGTACX_site755],9.03 ± 0.47
15,TTTTTTCTTTTCTTTTTATTTTATTTTGTTTTATTT [CACACA_negctrl_site799],8.61 ± 0.57
16,ATAATCCAAAAAAATCAAATAAAATAAAATAAAATA [CACACA_negctrl_site449],8.49 ± 0.55
17,TAAAAATATTTAAACTGTACTATTTTATGTTAAATG [XGTACX_site6620],8.43 ± 0.5
18,TGAACCAGATTTAGAAGTACTAAATATTACATACAT [XGTACX_site2437],8.7 ± 0.47
19,TGTTGCAAAACAAAAAAAAAAAAAAAAAATAATAAT [CACACA_negctrl_site1642],8.63 ± 0.57

row,Sequence,gcPBM binding intensity (ln)
1,AGAATATTTATATGATGTACTTATATATATATATAT [XGTACX_site3021],9.12 ± 0.12
2,ATTTTAATGGGACATGCATGGGACAAACTACAAATT [TGCATGCA_site853],9.09 ± 0.43
3,CAGAAATATTAATGCTGTACGGAATACATATATTTT [XGTACX_site539],8.69 ± 0.47
4,TATATATTAAAACACACACACATATATATATATATA [CACACA_site3787],9.93 ± 0.18
5,ATAAACATCGGTAGTACACACATTCATGTACTTGAT [CACACA_site3037],9.14 ± 0.36
6,AATTTGTAAAATAAGGTGCGTATAAAAAATTATATT [GTGCAC_site9676],8.73 ± 0.46
7,ATTTAATAAAAAAAAAAAATATTGTAGAATATGATG [GTGCAC_negctrl_site195],8.27 ± 0.52
8,CAAATGGTAAATGAAAGTACAAATTGTTTTGATTAA [XGTACX_site1536],8.9 ± 0.4
9,ATATACATATTCTTGTGTACATAAAAATTTATATAT [XGTACX_site8726],8.74 ± 0.35
10,TTATATTTTATATTTACACACATTTATATTTATAAA [CACACA_site203],8.78 ± 0.44
11,TTTATAATTTTAAAATGTACAAGGAGGAAAAATTCT [XGTACX_site422],8.49 ± 0.38
12,TATATAAATATTCGTAGTACAATACAATTATAAGTA [XGTACX_site3068],8.71 ± 0.43
13,TATATATTTTTTTCAAGTACACATTACAGTTACATA [XGTACX_site2713],8.65 ± 0.38
14,ATTCGATGTTTTAAATGTACACAAATTGAAGGAATA [XGTACX_site409],8.7 ± 0.42
15,ATGTTTTCTCTTTCGGTGCATTGTTTTCTATACTTT [GTGCAC_site9483],9.22 ± 0.52
16,GTATATAATTTTTTTTTTTTTTTCATTCTTTTCCTT [CACACA_negctrl_site1780],8.46 ± 0.59
17,AAATATATGAAATATACACACTTCTTTGGTATTATT [CACACA_site4414],8.91 ± 0.38
18,ATGAATTGACCATATTGTACATATTTAGGACTTACC [XGTACX_site8072],8.87 ± 0.38
